From patent US20240076343A1

B1: 1H3-hIgG1-L6-hIL-2 (R38E/D84F) (protein)
heavy: EVQLVESGGGLVQPGRSLKLSCAVSGFTFSDYAMAWVRQAPKKGLEWVATISYDGSRTYYRDSVKGRFTISRDNAKITLYLQMDSLRSEDTATYYCARHGSGYFDYWGQGVMVTVSS[not shown - about 450 residues with a human IgG1 Fc and changes]
light: DTVLTQSPALAVSPGERVTISCRASESVRTGVHWYQQKPGQQPKLLIYGASNLESGVPARFSGSGSGTDFTLTIDPVEADDTATYFCQQSWNDPFTFGSGTKLEIKRTVAAPSVFIFPPSDEQLKSGTASVVCLLNNFYPREAKVQWKVDNALQSGNSQESVTEQDSKDSTYSLSSTLTLSKADYEKHKVYACEVTHQGLSSPVTKSFNRGEC
B2: 1H3-hIgG1-L6-hIL-2 (R38E/D84P) (protein)
heavy: EVQLVESGGGLVQPGRSLKLSCAVSGFTFSDYAMAWVRQAPKKGLEWVATISYDGSRTYYRDSVKGRFTISRDNAKITLYLQMDSLRSEDTATYYCARHGSGYFDYWGQGVMVTVSS[not shown - about 450 residues with a human IgG1 Fc and changes]
light: B1 light
B3: 1H3-hIgG1-L6-hIL-2 (R38E/D84S) (protein)
heavy: EVQLVESGGGLVQPGRSLKLSCAVSGFTFSDYAMAWVRQAPKKGLEWVATISYDGSRTYYRDSVKGRFTISRDNAKITLYLQMDSLRSEDTATYYCARHGSGYFDYWGQGVMVTVSS[not shown - about 450 residues with a human IgG1 Fc and changes]
light: B1 light
B4: 1H3-hIgG1-L6-hIL-2 (R38E/D84T) (protein)
heavy: EVQLVESGGGLVQPGRSLKLSCAVSGFTFSDYAMAWVRQAPKKGLEWVATISYDGSRTYYRDSVKGRFTISRDNAKITLYLQMDSLRSEDTATYYCARHGSGYFDYWGQGVMVTVSS[not shown - about 450 residues with a human IgG1 Fc and changes]
light: B1 light
B5: 1H3-hIgG1-L6-hIL-2 (R38E/D84W) (protein)
heavy: EVQLVESGGGLVQPGRSLKLSCAVSGFTFSDYAMAWVRQAPKKGLEWVATISYDGSRTYYRDSVKGRFTISRDNAKITLYLQMDSLRSEDTATYYCARHGSGYFDYWGQGVMVTVSS[not shown - about 450 residues with a human IgG1 Fc and changes]
light: B1 light
B6: 1H3-hIgG1-L6-hIL-2 (R38E/D84Y) (protein)
heavy: EVQLVESGGGLVQPGRSLKLSCAVSGFTFSDYAMAWVRQAPKKGLEWVATISYDGSRTYYRDSVKGRFTISRDNAKITLYLQMDSLRSEDTATYYCARHGSGYFDYWGQGVMVTVSS[not shown - about 450 residues with a human IgG1 Fc and changes]
light: B1 light
B7: 1H3-hIgG1-L6-hIL-2 (R38E/D84V) (protein)
heavy: EVQLVESGGGLVQPGRSLKLSCAVSGFTFSDYAMAWVRQAPKKGLEWVATISYDGSRTYYRDSVKGRFTISRDNAKITLYLQMDSLRSEDTATYYCARHGSGYFDYWGQGVMVTVSS[not shown - about 450 residues with a human IgG1 Fc and changes]
light: B1 light
B8: 1H3-hIgG1-L6-hIL-2 (R38E/I92A) (protein)
heavy: EVQLVESGGGLVQPGRSLKLSCAVSGFTFSDYAMAWVRQAPKKGLEWVATISYDGSRTYYRDSVKGRFTISRDNAKITLYLQMDSLRSEDTATYYCARHGSGYFDYWGQGVMVTVSS[not shown - about 450 residues with a human IgG1 Fc and changes]
light: B1 light
B9: 1H3-hIgG1-L6-hIL-2 (R38E/I92R) (protein)
heavy: EVQLVESGGGLVQPGRSLKLSCAVSGFTFSDYAMAWVRQAPKKGLEWVATISYDGSRTYYRDSVKGRFTISRDNAKITLYLQMDSLRSEDTATYYCARHGSGYFDYWGQGVMVTVSS[not shown - about 450 residues with a human IgG1 Fc and changes]
light: B1 light
B10: 1H3-hIgG1-L6-hIL-2 (R38E/I92N) (protein)
heavy: EVQLVESGGGLVQPGRSLKLSCAVSGFTFSDYAMAWVRQAPKKGLEWVATISYDGSRTYYRDSVKGRFTISRDNAKITLYLQMDSLRSEDTATYYCARHGSGYFDYWGQGVMVTVSS[not shown - about 450 residues with a human IgG1 Fc and changes]
light: B1 light
B11: 1H3-hIgG1-L6-hIL-2 (R38E/I92Q) (protein)
heavy: EVQLVESGGGLVQPGRSLKLSCAVSGFTFSDYAMAWVRQAPKKGLEWVATISYDGSRTYYRDSVKGRFTISRDNAKITLYLQMDSLRSEDTATYYCARHGSGYFDYWGQGVMVTVSS[not shown - about 450 residues with a human IgG1 Fc and changes]
light: B1 light
B12: 1H3-hIgG1-L6-hIL-2 (R38E/I92E) (protein)
heavy: EVQLVESGGGLVQPGRSLKLSCAVSGFTFSDYAMAWVRQAPKKGLEWVATISYDGSRTYYRDSVKGRFTISRDNAKITLYLQMDSLRSEDTATYYCARHGSGYFDYWGQGVMVTVSS[not shown - about 450 residues with a human IgG1 Fc and changes]
light: B1 light
B13: 1H3-hIgG1-L6-hIL-2 (R38E/I92G) (protein)
heavy: EVQLVESGGGLVQPGRSLKLSCAVSGFTFSDYAMAWVRQAPKKGLEWVATISYDGSRTYYRDSVKGRFTISRDNAKITLYLQMDSLRSEDTATYYCARHGSGYFDYWGQGVMVTVSS[not shown - about 450 residues with a human IgG1 Fc and changes]
light: B1 light
B14: 1H3-hIgG1-L6-hIL-2 (R38E/I92H) (protein)
heavy: EVQLVESGGGLVQPGRSLKLSCAVSGFTFSDYAMAWVRQAPKKGLEWVATISYDGSRTYYRDSVKGRFTISRDNAKITLYLQMDSLRSEDTATYYCARHGSGYFDYWGQGVMVTVSS[not shown - about 450 residues with a human IgG1 Fc and changes]
light: B1 light
B15: 1H3-hIgG1-L6-hIL-2 (R38E/I92L) (protein)
heavy: EVQLVESGGGLVQPGRSLKLSCAVSGFTFSDYAMAWVRQAPKKGLEWVATISYDGSRTYYRDSVKGRFTISRDNAKITLYLQMDSLRSEDTATYYCARHGSGYFDYWGQGVMVTVSS[not shown - about 450 residues with a human IgG1 Fc and changes]
light: B1 light
B16: 1H3-hIgG1-L6-hIL-2 (R38E/I92M) (protein)
heavy: EVQLVESGGGLVQPGRSLKLSCAVSGFTFSDYAMAWVRQAPKKGLEWVATISYDGSRTYYRDSVKGRFTISRDNAKITLYLQMDSLRSEDTATYYCARHGSGYFDYWGQGVMVTVSS[not shown - about 450 residues with a human IgG1 Fc and changes]
light: B1 light
B17: 1H3-hIgG1-L6-hIL-2 (R38E/I92F) (protein)
heavy: EVQLVESGGGLVQPGRSLKLSCAVSGFTFSDYAMAWVRQAPKKGLEWVATISYDGSRTYYRDSVKGRFTISRDNAKITLYLQMDSLRSEDTATYYCARHGSGYFDYWGQGVMVTVSS[not shown - about 450 residues with a human IgG1 Fc and changes]
light: B1 light
B18: 1H3-hIgG1-L6-hIL-2 (R38E/I92S) (protein)
heavy: EVQLVESGGGLVQPGRSLKLSCAVSGFTFSDYAMAWVRQAPKKGLEWVATISYDGSRTYYRDSVKGRFTISRDNAKITLYLQMDSLRSEDTATYYCARHGSGYFDYWGQGVMVTVSS[not shown - about 450 residues with a human IgG1 Fc and changes]
light: B1 light

The binders below were run against high-affinity hIL-2 receptor (IL-2Rαβγ) (human) (UniProt P01589) (assay: cell-based or functional assay).
UniProt P01589, sequence (P01589 22-272, chain 1 of 3): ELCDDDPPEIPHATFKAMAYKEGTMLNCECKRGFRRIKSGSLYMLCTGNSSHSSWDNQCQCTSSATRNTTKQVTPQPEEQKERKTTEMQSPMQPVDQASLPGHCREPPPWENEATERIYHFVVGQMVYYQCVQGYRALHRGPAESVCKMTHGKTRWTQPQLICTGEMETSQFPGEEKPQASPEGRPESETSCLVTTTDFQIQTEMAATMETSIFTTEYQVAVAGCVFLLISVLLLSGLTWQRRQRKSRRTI
UniProt P01589, sequence (chain, as listed by the source, chain 2 of 3): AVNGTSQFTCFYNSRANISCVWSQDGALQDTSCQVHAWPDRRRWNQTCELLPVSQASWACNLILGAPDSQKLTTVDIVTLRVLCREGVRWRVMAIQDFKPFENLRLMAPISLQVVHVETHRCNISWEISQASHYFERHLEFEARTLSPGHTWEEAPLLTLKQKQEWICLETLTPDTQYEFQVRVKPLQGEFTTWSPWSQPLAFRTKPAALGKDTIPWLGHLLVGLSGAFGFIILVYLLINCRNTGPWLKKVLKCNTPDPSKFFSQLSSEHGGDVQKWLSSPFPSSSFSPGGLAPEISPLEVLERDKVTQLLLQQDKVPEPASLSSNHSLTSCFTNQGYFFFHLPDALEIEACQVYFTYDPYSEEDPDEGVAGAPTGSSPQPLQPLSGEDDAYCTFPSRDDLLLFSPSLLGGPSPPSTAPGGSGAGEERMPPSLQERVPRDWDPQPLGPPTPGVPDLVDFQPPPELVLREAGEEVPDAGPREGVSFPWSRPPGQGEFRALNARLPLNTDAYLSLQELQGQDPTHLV
UniProt P01589, sequence (chain, as listed by the source, chain 3 of 3): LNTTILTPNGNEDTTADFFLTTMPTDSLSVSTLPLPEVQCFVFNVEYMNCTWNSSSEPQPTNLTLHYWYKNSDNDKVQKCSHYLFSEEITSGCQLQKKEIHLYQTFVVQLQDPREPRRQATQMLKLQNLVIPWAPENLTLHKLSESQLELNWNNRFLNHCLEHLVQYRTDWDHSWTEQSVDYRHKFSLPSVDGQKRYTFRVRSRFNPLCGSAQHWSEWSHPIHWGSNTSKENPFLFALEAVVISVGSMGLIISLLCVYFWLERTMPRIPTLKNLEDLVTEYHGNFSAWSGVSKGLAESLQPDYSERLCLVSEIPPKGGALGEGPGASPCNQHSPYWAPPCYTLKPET
B1 showed a Fold change from hIL-2 (NK-92), pSTAT5 fixed conc. of 20 fold.
Binder B2 has a Fold change from hIL-2 (NK-92), pSTAT5 fixed conc. of 20 fold.
For B3, the Fold change from hIL-2 (NK-92), pSTAT5 fixed conc. was 21 fold.
Binder B4 has a Fold change from hIL-2 (NK-92), pSTAT5 fixed conc. of 20 fold.
B5 was tested, and the Fold change from hIL-2 (NK-92), pSTAT5 fixed conc. was 21 fold.
Work on B6 yielded a Fold change from hIL-2 (NK-92), pSTAT5 fixed conc. of 21 fold.
In the case of B7, the Fold change from hIL-2 (NK-92), pSTAT5 fixed conc. is reported as 22 fold.
Binder B8 has a Fold change from hIL-2 (NK-92), pSTAT5 fixed conc. of 22 fold.
For B9, the Fold change from hIL-2 (NK-92), pSTAT5 fixed conc. was 22 fold.
Binder B10 has a Fold change from hIL-2 (NK-92), pSTAT5 fixed conc. of 22 fold.
B11 was tested, and the Fold change from hIL-2 (NK-92), pSTAT5 fixed conc. was 22 fold.
In the case of B12, the Fold change from hIL-2 (NK-92), pSTAT5 fixed conc. is reported as 22 fold.
B13 was tested, and the Fold change from hIL-2 (NK-92), pSTAT5 fixed conc. was 22 fold.
B14 was tested, and the Fold change from hIL-2 (NK-92), pSTAT5 fixed conc. was 21 fold.
B15 showed a Fold change from hIL-2 (NK-92), pSTAT5 fixed conc. of 17 fold.
B16 showed a Fold change from hIL-2 (NK-92), pSTAT5 fixed conc. of 20 fold.
B17 showed a Fold change from hIL-2 (NK-92), pSTAT5 fixed conc. of 16 fold.
Binder B18 has a Fold change from hIL-2 (NK-92), pSTAT5 fixed conc. of 22 fold.

These binders were tested against intermediate affinity hIL-2 receptor complex (IL-2Rβγ) (human) (UniProt P14784) (assay: cell-based or functional assay).
UniProt P14784, sequence (P14784 27-551, chain 1 of 2): as the sequence (chain, as listed by the source, chain 2 of 3) above
UniProt P14784, sequence (chain, as listed by the source, chain 2 of 2): as the sequence (chain, as listed by the source, chain 3 of 3) above
B1 gave a Fold change from hIL-2 (TF1 + IL-2Rβ), pSTAT5 fixed conc. of 2 fold.
B2 was tested, and the Fold change from hIL-2 (TF1 + IL-2Rβ), pSTAT5 fixed conc. was 1 fold.
Binder B3 has a Fold change from hIL-2 (TF1 + IL-2Rβ), pSTAT5 fixed conc. of 1 fold.
B4 gave a Fold change from hIL-2 (TF1 + IL-2Rβ), pSTAT5 fixed conc. of 1 fold.
Work on B5 yielded a Fold change from hIL-2 (TF1 + IL-2Rβ), pSTAT5 fixed conc. of 1 fold.
For B6, the Fold change from hIL-2 (TF1 + IL-2Rβ), pSTAT5 fixed conc. was 1 fold.
Binder B7 has a Fold change from hIL-2 (TF1 + IL-2Rβ), pSTAT5 fixed conc. of 1 fold.
B8 showed a Fold change from hIL-2 (TF1 + IL-2Rβ), pSTAT5 fixed conc. of 1 fold.
Work on B9 yielded a Fold change from hIL-2 (TF1 + IL-2Rβ), pSTAT5 fixed conc. of 2 fold.
Binder B10 has a Fold change from hIL-2 (TF1 + IL-2Rβ), pSTAT5 fixed conc. of 1 fold.
With B11 the Fold change from hIL-2 (TF1 + IL-2Rβ), pSTAT5 fixed conc. was 1 fold.
B12 gave a Fold change from hIL-2 (TF1 + IL-2Rβ), pSTAT5 fixed conc. of 2 fold.
Work on B13 yielded a Fold change from hIL-2 (TF1 + IL-2Rβ), pSTAT5 fixed conc. of 1 fold.
With B14 the Fold change from hIL-2 (TF1 + IL-2Rβ), pSTAT5 fixed conc. was 1 fold.
For B15, the Fold change from hIL-2 (TF1 + IL-2Rβ), pSTAT5 fixed conc. was 1 fold.
B16 gave a Fold change from hIL-2 (TF1 + IL-2Rβ), pSTAT5 fixed conc. of 1 fold.
For B17, the Fold change from hIL-2 (TF1 + IL-2Rβ), pSTAT5 fixed conc. was 1 fold.
Binder B18 has a Fold change from hIL-2 (TF1 + IL-2Rβ), pSTAT5 fixed conc. of 2 fold.
